# In PMC4336329 (PLoS ONE, 2015):
# The whole screen tested about 310,000 compounds, of which about 2,200 (0.71%) showed an effect of 50% or more. The effect is printed as a negative number. Some of the results follow.
# Target: human ether-à-go-go-related gene (hERG) potassium channel (human, UniProt Q12809)
# Assay: primary screen, population patch clamp on CHO cells stably expressing hERG
# Chain of human ether-à-go-go-related gene (hERG) potassium channel (Q12809 whole entry, looked up): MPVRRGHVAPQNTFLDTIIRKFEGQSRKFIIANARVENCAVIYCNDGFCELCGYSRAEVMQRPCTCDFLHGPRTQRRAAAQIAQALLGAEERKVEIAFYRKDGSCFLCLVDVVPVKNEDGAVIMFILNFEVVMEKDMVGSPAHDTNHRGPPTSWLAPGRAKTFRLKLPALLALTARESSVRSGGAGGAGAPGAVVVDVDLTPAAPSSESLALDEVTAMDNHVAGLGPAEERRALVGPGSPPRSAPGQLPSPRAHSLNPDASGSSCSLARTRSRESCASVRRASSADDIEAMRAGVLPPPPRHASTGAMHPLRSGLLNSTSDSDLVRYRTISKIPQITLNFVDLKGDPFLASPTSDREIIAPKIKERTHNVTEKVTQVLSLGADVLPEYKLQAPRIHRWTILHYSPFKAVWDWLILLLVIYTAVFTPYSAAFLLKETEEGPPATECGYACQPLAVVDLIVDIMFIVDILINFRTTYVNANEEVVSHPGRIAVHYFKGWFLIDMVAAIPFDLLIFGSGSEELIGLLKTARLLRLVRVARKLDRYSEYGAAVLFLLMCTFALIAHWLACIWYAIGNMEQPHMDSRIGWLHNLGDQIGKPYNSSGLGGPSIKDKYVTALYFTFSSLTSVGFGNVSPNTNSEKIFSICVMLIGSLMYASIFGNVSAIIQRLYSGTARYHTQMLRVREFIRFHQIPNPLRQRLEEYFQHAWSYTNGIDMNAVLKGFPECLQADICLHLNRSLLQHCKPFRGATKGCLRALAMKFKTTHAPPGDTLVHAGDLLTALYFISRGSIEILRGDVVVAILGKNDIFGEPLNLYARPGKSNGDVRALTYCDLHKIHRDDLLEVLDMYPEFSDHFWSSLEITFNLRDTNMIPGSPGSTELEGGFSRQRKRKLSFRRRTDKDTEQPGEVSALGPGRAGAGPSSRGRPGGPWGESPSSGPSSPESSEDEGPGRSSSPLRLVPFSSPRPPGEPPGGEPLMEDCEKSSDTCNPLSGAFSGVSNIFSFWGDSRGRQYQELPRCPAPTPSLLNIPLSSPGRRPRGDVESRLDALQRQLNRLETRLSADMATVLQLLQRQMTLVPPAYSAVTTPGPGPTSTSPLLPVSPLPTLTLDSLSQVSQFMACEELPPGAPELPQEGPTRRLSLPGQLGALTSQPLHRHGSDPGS
row,Compound,"hERG current change (%, negative = inhibition) at 1uM [%]"
1,Cc1cccc(C)c1OCC(=O)Nc1c(C)nn(C)c1C,20.2
2,CC(C)CCn1nnnc1C(C(C)C)N1CCC(C(N)=O)CC1 (stereo not drawn),3.94
3,COC(=O)c1[nH]c(C)c(/C(O)=C2\C(=O)C(=O)N(CCCN3CCOCC3)C2c2ccccn2)c1C (stereo not drawn),7.78
4,COc1ccc(C)cc1-n1nnnc1SCC(=O)c1ccc2c(c1)OCCO2,11.3
5,CN(C)C(=O)N1CCC(C(=O)NCc2ccc(F)cc2)CC1,15.6
6,COC(=O)c1ccc(C2/C(=C(/O)c3ccc4c(c3)CC(C)O4)C(=O)C(=O)N2CCN2CCOCC2)cc1 (stereo not drawn),12
7,Nc1c(N(CCC2=CCCCC2)C(=O)COc2ccc(F)cc2)c(=O)[nH]c(=O)n1Cc1ccccc1,6.25
8,Nc1nnc(CC(=O)N/N=C/c2ccc(-c3ccccc3)o2)s1,7.35
9,Cc1ccc(-c2n[nH]c(=S)n2/N=C/c2ccc(C)s2)cc1,11.8
10,COc1ccc(N(CC(=O)Nc2ccc(F)cc2)S(=O)(=O)c2ccccc2[N+](=O)[O-])c(OC)c1,4.04
11,O=C(COc1ccc2c(-c3ccccc3)cc(=O)oc2c1)Nc1ccc(CN2CCOCC2)cc1,17.5
12,O=C(CSc1nnc(-c2ccccc2Br)o1)N1CCc2ccccc2C1,-1.28
13,Cc1ccccc1NC(=O)Cn1c(C)nc2ccc(NC(=O)C3CC3)cc2c1=O,13
14,CCOc1cc(C(=O)N2CCC(CC3CC(c4ccccc4)=NO3)(C(=O)NCc3ccc(OC)cc3)CC2)cc(OCC)c1OCC (stereo not drawn),7.91
15,O=C(CN1CCCCCC1)N/N=C/c1cccc(Cl)c1Cl,1.88
16,COC(=O)Cc1ccc(NC(=S)NCCCO)cc1,-5.72
17,CC1(C)CC(NC(=O)C(F)(F)F)CC(C)(C)N1OC(=O)c1ccco1,-2.4
18,COCCNC(=S)N1CCN(C(=O)C(=O)Nc2ccc(C(=O)OC)cc2)CC1,4.33
19,CCOC(=O)N1CCN(Cc2nc3cc(NC(=O)c4ccco4)ccc3n2CC)CC1,5.74
20,CCN(CC)c1ccc(NC(=O)c2ccc(NC(=O)C3CCCO3)cc2)c(C)c1 (stereo not drawn),11.9
21,CCN1CCN(C(c2ccccn2)c2c(NC(=O)c3ccccc3)sc(C)c2C)CC1 (stereo not drawn),-14.2
22,COc1ccccc1NC(=O)N1CCCC1C(=O)NCc1ccccc1 (stereo not drawn),11.3

row,Compound,"hERG current change (%, negative = inhibition) at 1uM [%]"
1,CCN(CC)CC.Cc1nnc(SCC(=O)NCc2ccc3c(c2)OCO3)[nH]c1=O.Cl,8.17
2,CCCCCn1c(CN2CCCCC2CC)nc2c1c(=O)n(C)c(=O)n2C (stereo not drawn),-7.37
3,Cc1cc(C)n(-c2nc(NCCO)c3c4c(sc3n2)CCCC4)n1,7.55
4,Cc1ccc(C(=O)C[n+]2ccc(-c3nnc4n3CCC4)cc2)cc1.[Br-],14.7
5,CC(C)(C)NC(=O)CN(Cc1ccc2c(c1)OCO2)C(=O)CCC(=O)Nc1nccs1,15.9
6,Cc1cc(CCN2CCC(=O)NC2=O)ccc1OC(C)C,6.73
7,O=C(COC(=O)/C=C/c1cccc([N+](=O)[O-])c1)Nc1ccc(Cl)cn1,15.8
8,C[N+](C)(C)CCCCCC(=O)/C=N/O.[I-],9.08
9,COc1ccc(S(=O)(=O)N2CCCCCC2)cc1NC(=O)CN1C(=O)NC(C)(c2ccccc2)C1=O (stereo not drawn),2.06
10,COc1ccc(-c2cc(C(=O)OCC(=O)N(C)C)c3ccccc3n2)cc1,7.99
11,Cc1nc2c(sc(=S)n2Cc2ccco2)c(=O)n1CC(=O)Nc1ccccc1F,5.04
12,CC(=O)N1c2ccccc2NC2=C(C(=O)CC(C)(C)C2)C1c1cccn1C (stereo not drawn),7.14
13,Cc1ccc(S(=O)(=O)Nc2cc3c(C(=O)O)c(C)oc3c3ccccc23)c(C)c1,18.8
14,Cc1cccc(OCC(=O)OCC(=O)N2CCCc3ccccc32)c1C,11.4
15,COc1ccc(N2CC(C(=O)N[C@@H](C)C(=O)N[C@H](CO)c3ccccc3)CC2=O)cc1 (stereo partly drawn),13.1
16,CC(C)c1ccccc1N=C1SCCCN1C(=O)c1cccc(N2C(=O)CCC2=O)c1,10.5
17,c1ccc(CC2CCN(c3nnnn3-c3ccccc3)CC2)cc1,6
18,Cc1sc(C(=O)Nc2ccc3ccccc3c2)cc1CC(=O)O,12.2
19,CCCCC(=O)Nc1ccc(NCc2ccc(C)s2)cc1,4.76
20,CCC(=O)N1CCN(c2cc(C)ccc2C)CC1,7.91
21,Nc1ncccc1OCc1ccc(Cl)c(Cl)c1,6.37
22,Cc1ccc(OCC(=O)N/N=C/c2ccncc2)cc1C,20

row,Compound,"hERG current change (%, negative = inhibition) at 1uM [%]"
1,CCCCCCC1CC(CCC(=O)Nc2ccc([N+](=O)[O-])cc2)C(=O)O1 (stereo not drawn),11.4
2,CCCSc1nsc(NC(=O)CCC)n1,2.3
3,COc1cc(N/C(N)=N/c2nc(C)cc(C)n2)c(OC)cc1Cl,-17.2
4,O=C(Cc1ccc(NC2=NC3CS(=O)(=O)CC3S2)cc1)NCCc1ccccc1 (stereo not drawn),7.09
5,COC(=O)[C@@H](NC(=O)c1ccccc1OC1CCN(S(C)(=O)=O)CC1)C(C)C,10.5
6,CCc1nnc(NC(=O)Cn2nc(-c3ccccc3OC)ccc2=O)s1,6.78
7,COc1cc(NC(=O)COn2nnc3ccc(S(C)(=O)=O)cc32)cc(OC)c1,10.5
8,Cc1ccc2c(=O)cc(C(=O)Nc3ccc(S(=O)(=O)Nc4onc(C)c4C)cc3)oc2c1,19.6
9,CN(C)c1nccc(N(Cc2ccccc2)Cc2ccccc2)c1C#N,-38.8
10,CC(=O)c1cc(C#N)c(N(C)Cc2ccccc2)nc1C,4.62
11,CCCC(CCC)C(=O)NNc1cc(=O)c2c(=O)n(C)c(=O)n(C)c2[nH]1,18.1
12,COc1ccc(OCc2cn3c(C)cc(C)nc3n2)cc1,4.8
13,CN(C)S(=O)(=O)c1cccc(-c2nnc(SCc3cc(Cl)cc4c3OCOC4)n2N)c1,12.6
14,CCCCN(C)CCNC(=O)c1cc2c(-c3cccc(OC)c3)nn(C)c2s1,8.34
15,C[C@@H]1NS(=O)(=O)[C@H]2C[C@@H]3C=C[C@]2(O3)[C@H]1OC(=O)c1ccc(C(C)(C)C)cc1,10.3
16,CCN(CC)c1c([N+](=O)[O-])c(=O)n(C)c2ccccc12,1.95
17,O=C(CCN1C(=O)c2ccccc2C1=O)NCc1ccc(F)cc1,9.91
18,O=C1C=C(c2ccc3c(c2)OCO3)CCC1,12.3
19,Cn1c(=O)n(C)c2cc(S(=O)(=O)Nc3ccccc3)ccc21,13
20,COc1ccc(-c2nc(CS(=O)CC(=O)NCCCN3CCCC3)c(C)o2)cc1OC (stereo not drawn),-2.17
21,CCOc1cc(/C=N/n2cnnc2)ccc1OCC(=O)Nc1ccccc1OC,14.4
22,COC(=O)c1ccccc1NC(=O)NC1CC1,13.7

row,Compound,"hERG current change (%, negative = inhibition) at 1uM [%]"
1,COc1cccc(C(=O)N2CCN=C2SC)c1,13.2
2,Cc1cc(C(=O)Nn2c(-c3ccncc3)nc3ccccc3c2=O)ccc1[N+](=O)[O-],13.5
3,CCc1nc(SCC(N)=O)c2c(=O)n(C)c(=O)n(C)c2n1,13.9
4,CCC(C)NC(=O)CN(C1CCCCC1)S(C)(=O)=O (stereo not drawn),7.49
5,O=C(Nc1ccccn1)C1CCCN(c2ncnc3c2nc2n3CCCCC2)C1 (stereo not drawn),4.27
6,O=C1CC(N2CCOCC2)C(=O)N1CCN1C(=O)CC(N2CCOCC2)C1=O (stereo not drawn),14
7,Cc1ccc(-n2nc3c(=O)n(CCCC(=O)NCc4ccccc4C)nc(C)c3c2C)cc1,14.4
8,COc1ccc(CN(C)CC2CCCN(CCc3ccc(Cl)cc3)C2)cc1OC (stereo not drawn),-78.2
9,Cc1noc(C)c1CN(C(=S)NC1CC2CCC1C2)c1ccccc1 (stereo not drawn),4.11
10,CCN(CCCNC(=O)CCCOc1cc(=O)n(C)c2ccccc12)Cc1ccccc1,7.53
11,Cl.O=C(O)c1ccc(OCCn2ccnc2)cc1,14.8
12,N#Cc1ncc(Cl)c2ccccc12,9.45
13,Cc1ccc(C)c(NC(=O)CSc2nnc(NC(=O)C3CC3)s2)c1,15.9
14,COc1ccc(OC)c(S(=O)(=O)NC2CCSc3ccccc32)c1 (stereo not drawn),15.4
15,CC(=O)Nc1ccc(NC(=O)Nc2ccccc2C)cc1,10.6
16,O=C(CSc1ccc2c(c1)OCCO2)Nc1ncc(Cl)cc1Cl,-5.44
17,COc1ccccc1CNS(=O)(=O)c1ccc2c(c1)N(C(C)=O)CCO2,16.7
18,O=C(O)CC(NC(=S)NCc1ccccc1)C(=O)O (stereo not drawn),-7.52
19,N#CC1=C(N)C(C#N)(C#N)C2(CCC3(CC2)OCCO3)C2CC3(CC=C12)OCCO3 (stereo not drawn),-5.39
20,CN1C(=O)C(Cc2nc3ccccc3c(=O)n2-c2ccccc2)c2ccccc21 (stereo not drawn),-4.99
21,O=C(Nc1ccc(S(=O)(=O)C(F)F)cc1)c1cccc(S(=O)(=O)N2CCOCC2)c1,1.63
